Some of the results follow.
T1: UNK ZnF1-3 (human, UniProt Q9C0B0 31-174)
T1 sequence: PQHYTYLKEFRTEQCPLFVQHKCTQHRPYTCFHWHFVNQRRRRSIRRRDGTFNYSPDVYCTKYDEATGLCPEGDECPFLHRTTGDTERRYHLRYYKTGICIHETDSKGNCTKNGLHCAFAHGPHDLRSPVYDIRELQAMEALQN

B1: chr11:20202655:20202656:-_ENSMUSG00000020142_ENSMUST00000109594|mus_mus|motif|central (ssRNA)
RNA: GGGAGUUCUACAGUCCGACGAUCAUAGACAUAAUUUGUAGUUUAGUUCCCCUUUAUCCAAACUCAGGUUUGCUUGGAGCGGAAAGCACACACAUACACACACACACUUGAUACAUAAAGUAUAUGUAAAUACAGAGGAAAAGACAACAGAGGAUUGAGCAUCA
B2: chr6:41757443:41757444:+_ENSG00000214736_ENST00000398881|hu_mus|hu_hu_hu_mus_False|1_1 (ssRNA)
RNA: GGGAGUUCUACAGUCCGACGAUCGAACCGUGCAGAGGCAACAUCUCAGCCGACACUGGGGGAUGGGGGGGCAGUGGGGGGGGGUUCAGGCAAGGAGAGGGAGUCAACUUCAGCUGCCACUCAGGUAGGAUCUUGUGGGGCACACAACAGAGGAUUGAGCAUCA
B3: 39932699_39932819_2068_CDS_ENSG00000183337_ENST00000397354|human|control|control (ssRNA)
RNA: GGGAGUUCUACAGUCCGACGAUCAAGGCCGUUCUCGUUUGCUUUGAAACUCGGUUCUGGGUUGCUGGCUUUGGCGCCCUUGCUGCUGGUGCUGCUACUGUGCUUGGCAGGAGUGGCCGGGGGCUGGCCCACGUGCUGAAUAACCAACAGAGGAUUGAGCAUCA
B4: 137848543_137849276_803_3pUTR_ENSG00000120705_ENST00000360541|human|control|control (ssRNA)
RNA: GGGAGUUCUACAGUCCGACGAUCAUAAACAGCUGCACAGCAGUCUCUGCUACUUUCCGAACAUAGUUAUGUCGCUUUUCCAUUCUUAAACGGGCAAAACGCAAGGCUGACUGACCUCCUCUACCGUGUUUCUUUGGGAGAUCCCAACAGAGGAUUGAGCAUCA
B5: chr10:28872372:28872373:+_ENSG00000095787_ENST00000354911|hu_mus|motif|central (ssRNA)
RNA: GGGAGUUCUACAGUCCGACGAUCUGCAUCUGAAGUUUUGCUUGGAUUAUUGCUUGGAUUAGAAGAAUGUGAAUUUGAACGGUGAAGUGCACUGUGGUUGUGUGAGUUUUCUUGUGGAGAGUAACUGGUCCCACCGUCCCUUUCCAACAGAGGAUUGAGCAUCA
B6: chr5:138700276:138700277:+_ENSG00000120727_ENST00000265192|hu_mus|FALSE|FALSE (ssRNA)
RNA: GGGAGUUCUACAGUCCGACGAUCUUCCAGCAUUUCUUGGAAACAGCGUUCAAUAAAUUCUUCUUCCCACAACUCCUCUUCUAUUUGUCUGUUGAAUUCCUCUUCAUUUUCCAUCCACAUGUACUCUGCAAAUGGAUUAUCCUCCAACAGAGGAUUGAGCAUCA
B7: chr4:17845017:17845018:+_ENSG00000109805_ENST00000514176|hu_mus|hu_hu_hu_mus_False|48_68 (ssRNA)
RNA: GGGAGUUCUACAGUCCGACGAUCGCUCUCUUAACUUGUAUCUUCAUUAAGGAACUCUGCAAGGUUAGUUUACUUUUUCUGUAGCGCGCGGUUUUGGGCUCGUCUGGGUAAUCUCAUCUUCAUUUCUGAUGGUGGUUCAUGAUCCAACAGAGGAUUGAGCAUCA
B8: chr7:65705475:65705476:+_ENSG00000169902_ENST00000304842|hu_hu|hu_hu_hu_mus_True|38_98 (ssRNA)
RNA: GGGAGUUCUACAGUCCGACGAUCUCUAUUCGGUGAUGGCAUUCCAUGGCAUGCUGGCCCAGGUAAAACACGGUCACAGAACUAAUCACCAGACACGCCAAUAGUAAGUUCUGCUUCAGCUUCCCAACCAUCUUGAUGUGGUUACAACAGAGGAUUGAGCAUCA
B9: chr22:36164377:36164378:-_ENSG00000100320_ENST00000405409|hu_mus|motif|central (ssRNA)
RNA: GGGAGUUCUACAGUCCGACGAUCACGGCCCUCUACCACGGUGCCGUGCAAUUUCUCCCUGGCCCUGUCUGCAUCAGCACGGUUCUCGAAAGUUACGAACCCGAAUCCCUUGGAGCCGCGCUCAUUAAAGAUUAUUUCCACAUCCAACAGAGGAUUGAGCAUCA
B10: 180448006_180449495_405_CDS_ENSMUSG00000027573_ENSMUST00000029090|mouse|control|control (ssRNA)
RNA: GGGAGUUCUACAGUCCGACGAUCCAUCUCCCGAAUCUUGAUUCGCUCAUCAAGUGUUUCUAGGUCCACACUUGGUUCGAUCCCAGACUCCAUCCGAAAUUUCUCUGCUGCUUCCUUAAAGCCCUCUGUGACUAGGUAGUUCAUCAACAGAGGAUUGAGCAUCA
B11: chr8:26227902:26227903:+_ENSG00000221914_ENST00000315985|hu_hu|FALSE|FALSE (ssRNA)
RNA: GGGAGUUCUACAGUCCGACGAUCGGAAUGCCAACCCUAAUUCACUUUGUCUUGAAAUAUAUACAGAUUGUUUGUAGUAGCUACGGCAAUGAUAUUUUCCUUGGGGUGCCAGGCUGUGUGAAGGAUUUUCUUAUUGAAGUCUAGCAACAGAGGAUUGAGCAUCA
B12: chr1:39469031:39469032:+_ENSG00000174574_ENST00000432648|hu_hu|FALSE|FALSE (ssRNA)
RNA: GGGAGUUCUACAGUCCGACGAUCAUACCGUCGCAUAAUCUGAUCAUGUGUGAAUUUCACAAAAGAUUCAUAUUGUUCUGCUAGUUUGGUAUUGAGGAUUUGCUCAUACUCCUCCCGAAUUUUAUCUUCAUAGUCUUUUAAGAGCAACAGAGGAUUGAGCAUCA
B13: chrX:69798090:69798091:-_ENSMUSG00000031343_ENSMUST00000055966|mus_mus|mus_mus_mus_hu_False|18_38 (ssRNA)
RNA: GGGAGUUCUACAGUCCGACGAUCAAGUCCCCGGGUUCUUGUCGUCUUGAUUCCCCUUGACCAGUGGUUCCAGGGAGAAUAUUAAUCAGGAAAAGAAGUACAACUCUGGUCAUGUAAAAGUGCCACAUUUGUGUGAUUAUCAUCCAACAGAGGAUUGAGCAUCA
B14: chr15:80429895:80429896:+_ENSG00000086666_ENST00000558494|hu_hu|FALSE|FALSE (ssRNA)
RNA: GGGAGUUCUACAGUCCGACGAUCUCAAGAAUUUUGUAUUCCAGCAGGAGUUCAAAUCUUUUGGAUCUUUUCACCAACAACUACUGGAUUUUCUUUUCUGAUUUUCUCAGCAGCAUCGGCUUUGUAAUUGUAAGAGCAAUUGUGCAACAGAGGAUUGAGCAUCA
B15: chr7:149068622:149068623:-_ENSMUSG00000025139_ENSMUST00000001950|mus_hu|mus_mus_mus_hu_False|28_48 (ssRNA)
RNA: GGGAGUUCUACAGUCCGACGAUCGUGAGGCCUCUGAGUGUGGCUUGUGGUCUGUCCUGGGUUAGAGUUGUUAAUAUCACGGAACAUACCACUUAAGACGUUCCAGUCUGCCUGACUACCUUCAUUCCCAAUGGAGAAGAAAUCCAACAGAGGAUUGAGCAUCA
B16: chr1:149875238:149875239:-_ENSG00000159164_ENST00000369146|hu_mus|motif|central (ssRNA)
RNA: GGGAGUUCUACAGUCCGACGAUCUGUGGUUAGUUUAACUUCCUUUUAACUUUUUUUUUUUUUAACAUUUUACAAACAGCGGAAAACGGCAACACGUCACAGCUACGUUGGGAGUGGAGAGAGAGUACCAAAGAAAGCAGCCACCAACAGAGGAUUGAGCAUCA
B17: chr5:40767622:40767623:-_ENSG00000132356_ENST00000397128|hu_mus|hu_hu_hu_mus_False|28_48 (ssRNA)
RNA: GGGAGUUCUACAGUCCGACGAUCAUCUUUUAUUGCGGCCCUCUUCAUGGGAUCCACCUGCAGCAUAUGUUUCAAAAGGCUGAUUACAGAAGGAUUUAAGUACUGAGGGGUAUAGAAGAUCCCAUCACAUAUCUUCUUAAAAAGCAACAGAGGAUUGAGCAUCA
B18: chr7:26236612:26236613:-_ENSG00000122566_ENST00000356674|hu_mus|FALSE|FALSE (ssRNA)
RNA: GGGAGUUCUACAGUCCGACGAUCAACAAACAGCUUCUUCACAGUCACAUGGGCUCCUGGUUUUCCAGACUCCUCUCUUGCUACAGCACGUUUUGGCUCAACUACCCUGCCAUCAAUGGAAUGGGGCCUUGCAGCCAUGGCAGCCAACAGAGGAUUGAGCAUCA
B19: chr19:8913615:8913616:-_ENSMUSG00000071658_ENSMUST00000096259|mus_hu|mus_mus_mus_hu_False|98_98 (ssRNA)
RNA: GGGAGUUCUACAGUCCGACGAUCAGGGUACCAAAACACCCUGCCUCAAAUGGGUGCCCCACCCAGUAGGGAGUUGCAGCUGAAAGUAUCUGAUGCAGAAGCAGUGACUAUACGAAAGGAGGCCCCUGGGGAGGGCCAGGCCAGCAACAGAGGAUUGAGCAUCA
B20: chr10:33190432:33190433:-_ENSG00000150093_ENST00000302278|hu_mus|hu_hu_hu_mus_True|48_98 (ssRNA)
RNA: GGGAGUUCUACAGUCCGACGAUCUACAUUUUCCAAACCUGCACAUGAAUAAAACCCUGGCCACAGAGCCCCAAAACUACCCUACUGUGACUAUGGAGCUGCUGCUGUGAGCUUGGUGUUGCAAAAUCCGCCUGAGUAGGAUUCCAACAGAGGAUUGAGCAUCA
B21: chr5:128440902:128440903:+_ENSG00000066583_ENST00000173527|hu_mus|hu_hu_hu_mus_True|78_88 (ssRNA)
RNA: GGGAGUUCUACAGUCCGACGAUCUUGAACGGUGCUGCCAAGUCCUUUAGGGUAUUGUUCUGUUACAAUAACUGGAAUCCCUAAGAUCCGAGCUCCUUGCAACAGUCUCUGUCCCACACUAAUGAUGUCCCCAAAGUAUUUGAUCAACAGAGGAUUGAGCAUCA
B22: chr14:35078925:35078926:-_ENSG00000129515_ENST00000362031|hu_mus|FALSE|FALSE (ssRNA)
RNA: GGGAGUUCUACAGUCCGACGAUCAAAAUUUGGCAAUGAACUCUUUGUGUGAACGGUGAACUUGACUCUAUCCCUCUCACUGAGCGCGUCUGAAAUGUCCACCUGCAGAGCAGCGUCACUCUGGAGAUCUACAUUUAUUGCUUUCAACAGAGGAUUGAGCAUCA

Molecular target: T1, UNK ZnF1-3
Assay: nsRBNS (natural sequence RNA bind-n-seq); RBNS binding buffer (assumed for nsRBNS): 25 mM Tris pH 7.5, 150 mM KCl, 3 mM MgCl2, 0.01% Triton X-100, 500 ug/ml BSA, 20 U/ml SUPERase-In, 4 C; UNK is unkempt and MSI1 is Musashi-1; names of the RNAs are library labels; protein concentration not given here; high values mean tight binding

Compared with B1, B2 is lower in binding signal: 1.7 enrichment R for the first, 1.07 enrichment R for the second.

Compared with B3, B4 is higher in binding signal: 0.721 enrichment R for the first, 0.993 enrichment R for the second.

Compared with B5, B6 is lower in binding signal: 1.21 enrichment R for the first, 0.632 enrichment R for the second.

First: B7
Second: B8
The binding signal of the first is lower: 0.285 enrichment R for the first, 0.594 enrichment R for the second.

Compared with B9, B10 is lower in binding signal: 1.04 enrichment R for the first, 0.862 enrichment R for the second.

First: B11
Second: B12
The binding signal of the first is higher: 1.07 enrichment R for the first, 0.619 enrichment R for the second.

First: B13
Second: B14
The binding signal of the first is higher: 0.838 enrichment R for the first, 0.423 enrichment R for the second.

Going from B15 to B16, the binding signal rises from 0.574 enrichment R to 2.04 enrichment R.

Going from B17 to B18, the binding signal falls from 1.57 enrichment R to 1.19 enrichment R.

Compared with B19, B20 is lower in binding signal: 1.69 enrichment R for the first, 1.05 enrichment R for the second.

First: B21
Second: B22
The binding signal of the first is lower: 0.647 enrichment R for the first, 0.648 enrichment R for the second.

Reference: article PMC12136788
